# Changes are numbered by the printed parent chain; changes in the protein carry UniProt numbers. The list shows a part of the results.
# T1: RBFOX1 RRM RbFoxmut (Fox-RRM*) (Homo sapiens, UniProt Q9NWB1 109-208, R118D;E147R;N151S;E152T)
# T1 sequence: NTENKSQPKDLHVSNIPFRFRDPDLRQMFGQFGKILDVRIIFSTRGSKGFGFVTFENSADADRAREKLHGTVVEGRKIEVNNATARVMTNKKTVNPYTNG
# B1: UGCGGGG (DNA:RNA)
# RNA: GGGAGACCGGAAUUCAGAUUGUCCUGCGGGGUUAAAUCCCGUCGUAGCCACCA
# DNA 1: CAATCTGAATTCCGGTCTCCC
# DNA 2: TGGTGGCTACGACGGGATT
# B2: UCCUUAC (DNA:RNA)
# RNA: B1 RNA with G26C, G28U, G29U, G30A, G31C
# DNA 1: CAATCTGAATTCCGGTCTCCC
# DNA 2: TGGTGGCTACGACGGGATT
# B3: AGCCCCU (DNA:RNA)
# RNA: B1 RNA with U25A, G28C, G29C, G30C, G31U
# DNA 1: CAATCTGAATTCCGGTCTCCC
# DNA 2: TGGTGGCTACGACGGGATT
# B4: CGGUCAG (DNA:RNA)
# RNA: B1 RNA with U25C, C27G, G28U, G29C, G30A
# DNA 1: CAATCTGAATTCCGGTCTCCC
# DNA 2: TGGTGGCTACGACGGGATT
# B5: ACAAACA (DNA:RNA)
# RNA: GGGAGACCGGAAUUCAGAUUGUCCACAAACAUUAAAUCCCGUCGUAGCCACCA
# DNA 1: CAATCTGAATTCCGGTCTCCC
# DNA 2: TGGTGGCTACGACGGGATT
# B6: CAUGUAA (DNA:RNA)
# RNA: B5 RNA with A25C, C26A, A27U, A28G, A29U, C30A
# DNA 1: CAATCTGAATTCCGGTCTCCC
# DNA 2: TGGTGGCTACGACGGGATT
# B7: GCUAAAC (DNA:RNA)
# RNA: B5 RNA with A25G, A27U, C30A, A31C
# DNA 1: CAATCTGAATTCCGGTCTCCC
# DNA 2: TGGTGGCTACGACGGGATT
# B8: CUCACAG (DNA:RNA)
# RNA: B1 RNA with U25C, G26U, G28A, G29C, G30A
# DNA 1: CAATCTGAATTCCGGTCTCCC
# DNA 2: TGGTGGCTACGACGGGATT
# B9: AGGAGUC (DNA:RNA)
# RNA: B5 RNA with C26G, A27G, A29G, C30U, A31C
# DNA 1: CAATCTGAATTCCGGTCTCCC
# DNA 2: TGGTGGCTACGACGGGATT
# B10: UACGGAA (DNA:RNA)
# RNA: B1 RNA with G26A, G30A, G31A
# DNA 1: CAATCTGAATTCCGGTCTCCC
# DNA 2: TGGTGGCTACGACGGGATT
# B11: CCCUUAU (DNA:RNA)
# RNA: B5 RNA with A25C, A27C, A28U, A29U, C30A, A31U
# DNA 1: CAATCTGAATTCCGGTCTCCC
# DNA 2: TGGTGGCTACGACGGGATT
# B12: CUGACCU (DNA:RNA)
# RNA: B5 RNA with A25C, C26U, A27G, A29C, A31U
# DNA 1: CAATCTGAATTCCGGTCTCCC
# DNA 2: TGGTGGCTACGACGGGATT
# B13: AAUCACG (DNA:RNA)
# RNA: B5 RNA with C26A, A27U, A28C, A31G
# DNA 1: CAATCTGAATTCCGGTCTCCC
# DNA 2: TGGTGGCTACGACGGGATT
# B14: UACCCCC (DNA:RNA)
# RNA: B1 RNA with G26A, G28C, G29C, G30C, G31C
# DNA 1: CAATCTGAATTCCGGTCTCCC
# DNA 2: TGGTGGCTACGACGGGATT
# B15: UACCUCC (DNA:RNA)
# RNA: B1 RNA with G26A, G28C, G29U, G30C, G31C
# DNA 1: CAATCTGAATTCCGGTCTCCC
# DNA 2: TGGTGGCTACGACGGGATT
# B16: UCAUCUG (DNA:RNA)
# RNA: B5 RNA with A25U, A28U, A29C, C30U, A31G
# DNA 1: CAATCTGAATTCCGGTCTCCC
# DNA 2: TGGTGGCTACGACGGGATT
# B17: CGUAUAG (DNA:RNA)
# RNA: B1 RNA with U25C, C27U, G28A, G29U, G30A
# DNA 1: CAATCTGAATTCCGGTCTCCC
# DNA 2: TGGTGGCTACGACGGGATT
# B18: CGCAUUA (DNA:RNA)
# RNA: B5 RNA with A25C, C26G, A27C, A29U, C30U
# DNA 1: CAATCTGAATTCCGGTCTCCC
# DNA 2: TGGTGGCTACGACGGGATT
# B19: UGUGUUU (DNA:RNA)
# RNA: B1 RNA with C27U, G29U, G30U, G31U
# DNA 1: CAATCTGAATTCCGGTCTCCC
# DNA 2: TGGTGGCTACGACGGGATT
# B20: AAUGGCA (DNA:RNA)
# RNA: B5 RNA with C26A, A27U, A28G, A29G
# DNA 1: CAATCTGAATTCCGGTCTCCC
# DNA 2: TGGTGGCTACGACGGGATT
# B21: UACGGGG (DNA:RNA)
# RNA: B1 RNA with G26A
# DNA 1: CAATCTGAATTCCGGTCTCCC
# DNA 2: TGGTGGCTACGACGGGATT
# B22: UACAGAU (DNA:RNA)
# RNA: B1 RNA with G26A, G28A, G30A, G31U
# DNA 1: CAATCTGAATTCCGGTCTCCC
# DNA 2: TGGTGGCTACGACGGGATT
# B23: ACAAUUA (DNA:RNA)
# RNA: B5 RNA with A29U, C30U
# DNA 1: CAATCTGAATTCCGGTCTCCC
# DNA 2: TGGTGGCTACGACGGGATT
# B24: UUACGUU (DNA:RNA)
# RNA: B1 RNA with G26U, C27A, G28C, G30U, G31U
# DNA 1: CAATCTGAATTCCGGTCTCCC
# DNA 2: TGGTGGCTACGACGGGATT
# B25: CACCGGA (DNA:RNA)
# RNA: B1 RNA with U25C, G26A, G28C, G31A
# DNA 1: CAATCTGAATTCCGGTCTCCC
# DNA 2: TGGTGGCTACGACGGGATT
# B26: CGAGCGG (DNA:RNA)
# RNA: B1 RNA with U25C, C27A, G29C
# DNA 1: CAATCTGAATTCCGGTCTCCC
# DNA 2: TGGTGGCTACGACGGGATT
# B27: UGUGCUG (DNA:RNA)
# RNA: B1 RNA with C27U, G29C, G30U
# DNA 1: CAATCTGAATTCCGGTCTCCC
# DNA 2: TGGTGGCTACGACGGGATT
# B28: CGGUUCA (DNA:RNA)
# RNA: B5 RNA with A25C, C26G, A27G, A28U, A29U
# DNA 1: CAATCTGAATTCCGGTCTCCC
# DNA 2: TGGTGGCTACGACGGGATT
# B29: GAUUCGU (DNA:RNA)
# RNA: B1 RNA with U25G, G26A, C27U, G28U, G29C, G31U
# DNA 1: CAATCTGAATTCCGGTCTCCC
# DNA 2: TGGTGGCTACGACGGGATT
# B30: GUUGUUG (DNA:RNA)
# RNA: B1 RNA with U25G, G26U, C27U, G29U, G30U
# DNA 1: CAATCTGAATTCCGGTCTCCC
# DNA 2: TGGTGGCTACGACGGGATT
# B31: CCGCGCU (DNA:RNA)
# RNA: B5 RNA with A25C, A27G, A28C, A29G, A31U
# DNA 1: CAATCTGAATTCCGGTCTCCC
# DNA 2: TGGTGGCTACGACGGGATT
# Biological target: T1, RBFOX1 RRM RbFoxmut (Fox-RRM*)
# Test: EMSA; HiTS-Eq, 1 nM pool, 10 min; buffer printed only for the single-RNA assays: 10 mM Tris pH 7.5, 150 mM NaCl, 3.4 mM EDTA, 0.001% NP-40, 30 C
# Conditions: tags: His6 N-terminal (pET28a); label: 5' 32P
# Summary of the method: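 Relative association constants, normalised to the cognate motif, were derived by comparing read counts of each RNA species with those of the control reaction. The RNA sequenced was the free fraction, separated by 8% native PAGE after a 10 min equilibration in 50 µL of 1 nM 5′-radiolabelled RNA (7 randomized nucleotides) with increasing concentrations of purified wild-type or mutant RbFox RRM.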
row,Binder,binding signal
1,B1,0.0735 KA relative to UGCAUGU
2,B2,0.0887 KA relative to UGCAUGU
3,B3,0.0665 KA relative to UGCAUGU
4,B4,0.0842 KA relative to UGCAUGU
5,B5,0.101 KA relative to UGCAUGU
6,B6,0.147 KA relative to UGCAUGU
7,B7,0.0819 KA relative to UGCAUGU
8,B8,0.0993 KA relative to UGCAUGU
9,B9,0.093 KA relative to UGCAUGU
10,B10,0.0942 KA relative to UGCAUGU
11,B11,0.0902 KA relative to UGCAUGU
12,B12,0.0588 KA relative to UGCAUGU
13,B13,0.0798 KA relative to UGCAUGU
14,B14,0.0928 KA relative to UGCAUGU
15,B15,0.0299 KA relative to UGCAUGU
16,B16,0.0789 KA relative to UGCAUGU

row,Binder,binding signal
1,B17,0.13 KA relative to UGCAUGU
2,B18,0.14 KA relative to UGCAUGU
3,B19,0.115 KA relative to UGCAUGU
4,B20,0.126 KA relative to UGCAUGU
5,B21,0.0585 KA relative to UGCAUGU
6,B22,0.063 KA relative to UGCAUGU
7,B23,0.0959 KA relative to UGCAUGU
8,B24,0.122 KA relative to UGCAUGU
9,B25,0.0666 KA relative to UGCAUGU
10,B26,0.0942 KA relative to UGCAUGU
11,B27,0.178 KA relative to UGCAUGU
12,B28,0.112 KA relative to UGCAUGU
13,B29,0.134 KA relative to UGCAUGU
14,B30,0.15 KA relative to UGCAUGU
15,B31,0.111 KA relative to UGCAUGU

# From PMC9911399, “Two distinct binding modes provide the RNA-binding protein RbFox with extraordinary sequence specificity”
